Hit rate of the full screen: of about 330,000 compounds, about 1,700 (0.52%) were called active. The shares of active, inactive and inconclusive entries below differ from those in the screen. The call rests on the fitted dose curve; in most records, active means well fitted inhibition curve with a large enough effect; inconclusive means small, poorly fitted or top-dose-only effect; inactive means no such curve, though single readings can be large or run the other way. A potency beside an inconclusive call is a rough fit, not a confirmed value.
Target: Beta-lactamase (Escherichia coli (strain K12)) (UniProt P00811)
Assay: qHTS Inhibitors of AmpC Beta-Lactamase (assay without detergent); further: nearly all actives have a fitted effect of over 20% in size
Conditions: AmpC nitrocefin hydrolysis, absorbance 480 nm, 0.0001% Triton; series mostly up to 57.1 µM
Procedure, shortened: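 AmpC (5.3 nM in the dispensed reagent) in 20 mM phosphate pH 7.0 with 0.01% (detergent screen) or 0.0001% Triton X-100 was preincubated with compounds for 15 min at room temperature. Nitrocefin was then added from an 800 uM solution, and hydrolysis was followed at 480 nm.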
Potency means the concentration at half of the fitted maximal effect; tags describe the fitted curve by direction and shape.

Chain of UniProt P00811 (P00811 whole entry, looked up): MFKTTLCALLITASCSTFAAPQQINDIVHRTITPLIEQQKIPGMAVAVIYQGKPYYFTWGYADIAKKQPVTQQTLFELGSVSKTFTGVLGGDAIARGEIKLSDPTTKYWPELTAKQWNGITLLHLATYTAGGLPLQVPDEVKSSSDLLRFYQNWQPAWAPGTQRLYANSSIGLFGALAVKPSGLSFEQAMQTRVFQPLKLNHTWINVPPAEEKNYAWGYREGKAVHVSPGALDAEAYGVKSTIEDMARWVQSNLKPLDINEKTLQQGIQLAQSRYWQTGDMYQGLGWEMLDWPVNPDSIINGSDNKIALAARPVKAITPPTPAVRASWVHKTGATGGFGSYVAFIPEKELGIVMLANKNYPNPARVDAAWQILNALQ

Structure (SMILES)	Potency
Cc1ccc(S(=O)(=O)c2nc(S(=O)(=O)c3ccc(C)cc3)c(N3CCN(CCO)CC3)s2)cc1	inactive
COc1ccc(NC(=O)c2cccc(-n3c(C)ccc3C)c2)c(OC)c1	inconclusive: 31.6 µM [inhibitor, single point]
CC(=O)Nc1ccc(N/C(N)=N/c2nc(C)cc(C)n2)cc1	inactive
Cc1sc2nc(CN(C(=O)NC3CCCCC3)C3CCCC3)[nH]c(=O)c2c1C	inactive
O=C1CCCC(=NNC(=O)c2cc3ccccc3cc2O)C1	active: 31.6 µM
CC(C)Oc1ccc(C(=O)NC(Cc2c[nH]c3ccccc23)C(=O)NN)cc1 (centres undefined)	inactive
COc1ccc(N=Cc2cc3c(cc2O)OC(N)=C(C#N)C3c2ccccc2)cc1 (centres undefined)	inactive
CN(CC(=O)Nc1ccc(Cl)c(C(F)(F)F)c1)C(=O)c1cn2ccccc2n1	active: 35.5 µM
CC(=O)c1ccc(-c2ccc(C(=O)NC3CC(C)(C)NC(C)(C)C3)o2)cc1	inconclusive: 39.8 µM [inhibitor, single point]
O=C(NCc1ccc2c(c1)OCO2)c1ccc(CSCc2ccccc2Cl)o1	inconclusive: 1.78 µM [inhibitor, partial curve]
COc1cc(CCC(=O)N2CCN(c3ccc(N4CCOCC4)nn3)CC2)cc(OC)c1OC	inactive
Cc1ccc(S(=O)(=O)Nc2ccccc2C(=O)Nc2ccc(S(=O)(=O)Nc3nccc(C)n3)cc2)cc1	inconclusive: 39.8 µM [inhibitor, single point]
NS(=O)(=O)c1ccc(CCNC(=O)C2CCN(S(=O)(=O)c3c(Cl)cccc3Cl)CC2)cc1	inconclusive: 25.1 µM [inhibitor, single point]
CC(=O)Nc1ccc(S(=O)(=O)NCC(=O)OCC(=O)c2cc(C)n(-c3ccc4c(c3)OCO4)c2C)cc1	inconclusive: 39.8 µM [inhibitor, single point]
COc1ccc(C(=O)NCC2(c3ccc(OC)c(OC)c3)CCCC2)c(OC)c1	inactive
Nc1nnc(CCS(=O)(=O)c2ccc(Br)cc2)s1	inactive
O=C(CC1=NCCNC(c2ccccc2)C1)c1ccccc1O (centres undefined)	inactive
N/C(=N\N=C\c1cccs1)SC1CC(=O)N(c2ccc(Br)cc2)C1=O (centres undefined)	inconclusive: 10 µM [inhibitor, full curve, poor fit]
O=c1cc(-c2ccccc2)c2ccc(O)c(CN3CCCCC3)c2o1	inactive
COc1cc(/C=C2\C(=O)N(c3ccccc3)N=C2C)ccc1Oc1ccc([N+](=O)[O-])cc1[N+](=O)[O-]	inactive
N#C/C(=N\Nc1ccccc1[N+](=O)[O-])C(=N)N1CCCCC1	inactive
COC(=O)c1cn(NC(=O)c2ccc(OC)c(OC)c2)c(=O)c2ccccc12	inconclusive: 6.31 µM [inhibitor, single point]
CCOc1ccc(C=NNc2ccc(S(=O)(=O)Nc3ccccc3C(=O)O)cc2[N+](=O)[O-])cc1	active: 28.2 µM
COc1cc(NC(=O)c2ccc3c(c2)OCCO3)ccc1NC(=O)c1cccs1	inactive
O=C1/C(=C/c2ccc(O)c(O)c2)SC(=S)N1Nc1ccccc1	active: 25.1 µM

Structure (SMILES)	Potency
CC1=C([N+](=O)[O-])C(c2ccccc2Cl)NC(=O)N1C (centres undefined)	inactive
COC(=O)c1ccc(CN(c2ccc(C(=O)O)c(O)c2)S(=O)(=O)c2ccc(Cl)c([N+](=O)[O-])c2)cc1	active: 7.94 µM
O=C(COc1ccc(Cl)cc1)Nc1c(-c2cccs2)nc2ccccn12	inactive
CCN(CC)S(=O)(=O)c1ccc(N2CCCC2)c(NC(=O)C2CSC3(C)CCC(=O)N23)c1 (centres undefined)	inconclusive: 31.6 µM [inhibitor, single point]
CC1CC(C)CN(CCCNC(=O)C2CCCN(S(=O)(=O)N3CC(C)CC(C)C3)C2)C1 (centres undefined)	inactive
CCCCNC(=S)NCc1ccc2[nH]c3c(c2c1)CCCC3	inconclusive: 15.8 µM [inhibitor, single point]
CCCNC(=O)c1cccc(COCC(F)(F)C(F)F)c1	inconclusive: 0.355 µM [inhibitor, partial curve, poor fit]
CCOC(=O)N1CCC(NC(=O)c2ccc3c(c2)N(Cc2ccc(F)cc2)CCS3)CC1	inconclusive: 0.355 µM [inhibitor, full curve, poor fit]
CCOc1ccc(Nc2cc(C)c3ccccc3n2)cc1	inconclusive: 2 µM [inhibitor, full curve, poor fit]
O=C1C2Sc3[nH]c(=O)sc3C(c3ccccc3)C2C(=O)N1c1ccccc1 (centres undefined)	active: 17.8 µM
O=C(NC(=O)N1CCCCC1)c1ccc(Cl)cc1	inactive
O=C(NCc1cccnc1)c1ccc(COc2ccccc2Br)o1	inconclusive: 6.31 µM [inhibitor, single point]
COc1ccc(S(=O)(=O)N(NC2=NS(=O)(=O)c3ccccc32)C(=O)C(C)C)cc1	inactive
Cc1[nH]c2ccc3ncccc3c2c1C	inactive
COc1ccc(C(=O)Nc2ccccc2C(=O)NC(Cc2ccc(O)cc2)C(=O)NNC(=O)c2ccccc2)cc1 (centres undefined)	inconclusive: 3.16 µM [inhibitor, partial curve]
O=C(NCC(c1ccco1)N1CCN(c2ccccc2F)CC1)c1ccco1 (centres undefined)	inconclusive: 35.5 µM [inhibitor, single point]
CCOC(=O)c1c(-c2ccc(C)cc2)csc1NC(=S)NC(=O)c1ccccc1	inconclusive: 1.41 µM [inhibitor, partial curve, poor fit]
O=C1NC(=O)N(Cc2ccccc2Cl)C(=O)/C1=C/c1cccs1	active: 20 µM
CCOC(=O)CNC(=O)C1(/C=C/c2ccccc2)CC(=O)N1c1ccc(C)cc1 (centres undefined)	inactive
Cc1ccc(S(=O)(=O)N(C)C)cc1NC(=O)c1c(-c2c(F)cccc2Cl)noc1C	inactive
COc1ccc(C(=O)CSc2nnc(CNc3ccc(C)cc3C)n2Cc2ccco2)cc1	inactive
CCOCCCNC(=S)N(Cc1ccccc1)Cc1nc2ccccc2c(=O)[nH]1	inconclusive: 25.1 µM [inhibitor, single point]
COc1cccc2c(Cl)c(CCCl)c(C)nc12	inactive
COc1ccc(OCC(=O)NNC(=O)Cn2c(=O)cnc3ccccc32)cc1	inactive
CCN(C(=O)Cn1nnc(-c2ccccc2)n1)C1CCS(=O)(=O)C1 (centres undefined)	inconclusive: 28.2 µM [inhibitor, single point]

Structure (SMILES)	Potency
Cc1cccc(CC(=O)OCn2nnc3ccccc3c2=O)c1	active: 10 µM
CN(C)CCCN(C(=O)c1ccc(S(=O)(=O)N2CCc3ccccc3C2)cc1)c1nc2c(F)cccc2s1	inactive
O=C(CSc1nnc2ccc(-c3ccc(Br)cc3)nn12)NCC1CCCO1 (centres undefined)	inconclusive: 39.8 µM [inhibitor, single point]
COC(=O)c1ccc2c(c1)C(C)(C)C(/C=C/c1ccc(O)cc1)=[N+]2C	inconclusive: 6.31 µM [inhibitor, single point]
COc1ccc(C2=NN(C(=O)c3ccc(Cl)c([N+](=O)[O-])c3)C(c3ccccc3)C2)cc1 (centres undefined)	inconclusive: 39.8 µM [inhibitor, single point]
COc1cc(OC)cc(C(=O)NNC(=O)CN2C(=O)NC(C)(c3ccc(C)cc3)C2=O)c1 (centres undefined)	inconclusive: 39.8 µM [inhibitor, single point]
O=C(NCCN1CCOCC1)c1ccc2c(c1)N(Cc1ccc(F)cc1)C(=O)CS2	active: 44.7 µM
O=C(COC(=O)c1c2c(nc3ccccc13)/C(=C/c1ccco1)CC2)NC1CCCC1	active: 17.8 µM
CCOc1ccc(S(=O)(=O)N2CCOCC2)cc1NC(=O)Cc1c(F)cccc1Cl	inconclusive: 39.8 µM [inhibitor, single point]
FC(F)Sc1ccc(NC(=S)NC2CCCCC2)cc1	inconclusive: 8.91 µM [inhibitor, full curve, poor fit]
CCC(Oc1ccccc1)C(=O)Nc1ccc(-c2nnc(-c3ccco3)o2)cc1 (centres undefined)	inconclusive: 6.31 µM [inhibitor, single point]
O=C(CN1C(=O)c2ccccc2S1(=O)=O)NC1CC2CCC1C2 (centres undefined)	inactive
O=C(COC(=O)C1CC1)NCc1ccccc1	inactive
Cc1cc2cc(CNC(=S)Nc3ccc(OC(F)F)cc3)ccc2[nH]1	inconclusive: 39.8 µM [inhibitor, single point]
Cc1cccc(NC(=O)CSc2nc3ccccc3c(=O)n2C)c1	inactive
CC(C)Cc1cc(C(=O)NCCN2CCOCC2)no1	active: 0.501 µM
O=C1NC(=O)C(=Cc2cc3c(cc2[N+](=O)[O-])OCO3)C(=O)N1	inconclusive: 20 µM [inhibitor, partial curve]
O=C(O)c1ccc(Cl)c(S(=O)(=O)Nc2ccc(OCc3ccccc3)cc2)c1	inconclusive: 31.6 µM [inhibitor, single point]
Cc1ccc(O)c(CNc2nc3ccccc3n2C)c1	inconclusive: 35.5 µM [inhibitor, single point]
CC(C)CNC(=O)c1cccc(NC(=O)Cc2ccc(Br)cc2)c1	inconclusive: 39.8 µM [inhibitor, single point]
COc1ccc2c(c1OC)C(=O)N1C2SC(C)(C)[C@H]1C(=O)NCC(C)C (some centres undefined)	inactive
Cc1cccc(N=C2NC(=O)S/C2=C\c2ccco2)c1	inconclusive: 11.2 µM [inhibitor, partial curve]
COc1ccc(C2C(C#N)=C(N)OC3=C2C(=O)CCC3)cc1Cn1nc(C)c([N+](=O)[O-])c1C (centres undefined)	inconclusive: 0.631 µM [inhibitor, partial curve, poor fit]
CC1(c2ccccc2)CC(c2ccccc2)=Nc2nonc2N1 (centres undefined)	inconclusive: 8.91 µM [inhibitor, full curve, poor fit]

Reference: PubChem BioAssay AID485341 (National Center for Advancing Translational Sciences (NCATS), 2010)
